Results as given in the supplement of paper PMC11876631.
± gives the standard deviation of the averaged measurements. Laboratory Escherichia coli strains with one amino-acid change in an essential protein, pooled on minimal glucose agar with carbenicillin or gentamicin at twice the control MIC (plus kanamycin and chloramphenicol for the plasmids), 48 h. Fold change of barcode share against drug-free plates; higher = less susceptible. Active = above 20 in both replicates (the paper's putatively resistant). '<' = one read or none on drug, '>' = one read or none on a drug-free plate. Shares are relative, so most strains fall below 1 when a few take over. Listed are strains with at least 15 reads on both drug-free plates, and hits; most hits rest on fewer reference reads. Replicate rank correlation about 0.5. Edits are read from barcodes.

B1: hemD V182P (protein)
chain: MSILVTRPSPAGEELVSRLRTLGQVAWHFPLIEFSPGQQLPQLADQLAALGESDLLFALSQHAVAFAQSQLHQQDRKWPRLPDYFAIGRTTALALHTVSGQKILYPQDREISEVLLQLPELQNIAGKRALILRGNGGRELIGDTLTARGAEVTFCECYQRCAIHYDGAEEAMRWQAREVTMPVVTSGEMLQQLWSLIPQWYREHWLLHCRLLVVSERLAKLARELGWQDIKVADNADNDALLRALQ
B2: hemD V183D (protein)
chain: MSILVTRPSPAGEELVSRLRTLGQVAWHFPLIEFSPGQQLPQLADQLAALGESDLLFALSQHAVAFAQSQLHQQDRKWPRLPDYFAIGRTTALALHTVSGQKILYPQDREISEVLLQLPELQNIAGKRALILRGNGGRELIGDTLTARGAEVTFCECYQRCAIHYDGAEEAMRWQAREVTMVDVTSGEMLQQLWSLIPQWYREHWLLHCRLLVVSERLAKLARELGWQDIKVADNADNDALLRALQ
B3: hemD V183A (protein)
chain: MSILVTRPSPAGEELVSRLRTLGQVAWHFPLIEFSPGQQLPQLADQLAALGESDLLFALSQHAVAFAQSQLHQQDRKWPRLPDYFAIGRTTALALHTVSGQKILYPQDREISEVLLQLPELQNIAGKRALILRGNGGRELIGDTLTARGAEVTFCECYQRCAIHYDGAEEAMRWQAREVTMVAVTSGEMLQQLWSLIPQWYREHWLLHCRLLVVSERLAKLARELGWQDIKVADNADNDALLRALQ
B4: hemD L212D (protein)
chain: MSILVTRPSPAGEELVSRLRTLGQVAWHFPLIEFSPGQQLPQLADQLAALGESDLLFALSQHAVAFAQSQLHQQDRKWPRLPDYFAIGRTTALALHTVSGQKILYPQDREISEVLLQLPELQNIAGKRALILRGNGGRELIGDTLTARGAEVTFCECYQRCAIHYDGAEEAMRWQAREVTMVVVTSGEMLQQLWSLIPQWYREHWLLHCRLDVVSERLAKLARELGWQDIKVADNADNDALLRALQ
B5: hemD L212P (protein)
chain: MSILVTRPSPAGEELVSRLRTLGQVAWHFPLIEFSPGQQLPQLADQLAALGESDLLFALSQHAVAFAQSQLHQQDRKWPRLPDYFAIGRTTALALHTVSGQKILYPQDREISEVLLQLPELQNIAGKRALILRGNGGRELIGDTLTARGAEVTFCECYQRCAIHYDGAEEAMRWQAREVTMVVVTSGEMLQQLWSLIPQWYREHWLLHCRLPVVSERLAKLARELGWQDIKVADNADNDALLRALQ
B6: hemD V183Q (protein)
chain: MSILVTRPSPAGEELVSRLRTLGQVAWHFPLIEFSPGQQLPQLADQLAALGESDLLFALSQHAVAFAQSQLHQQDRKWPRLPDYFAIGRTTALALHTVSGQKILYPQDREISEVLLQLPELQNIAGKRALILRGNGGRELIGDTLTARGAEVTFCECYQRCAIHYDGAEEAMRWQAREVTMVQVTSGEMLQQLWSLIPQWYREHWLLHCRLLVVSERLAKLARELGWQDIKVADNADNDALLRALQ
B7: hemD V183W (protein)
chain: MSILVTRPSPAGEELVSRLRTLGQVAWHFPLIEFSPGQQLPQLADQLAALGESDLLFALSQHAVAFAQSQLHQQDRKWPRLPDYFAIGRTTALALHTVSGQKILYPQDREISEVLLQLPELQNIAGKRALILRGNGGRELIGDTLTARGAEVTFCECYQRCAIHYDGAEEAMRWQAREVTMVWVTSGEMLQQLWSLIPQWYREHWLLHCRLLVVSERLAKLARELGWQDIKVADNADNDALLRALQ
B8: hemD L212A (protein)
chain: MSILVTRPSPAGEELVSRLRTLGQVAWHFPLIEFSPGQQLPQLADQLAALGESDLLFALSQHAVAFAQSQLHQQDRKWPRLPDYFAIGRTTALALHTVSGQKILYPQDREISEVLLQLPELQNIAGKRALILRGNGGRELIGDTLTARGAEVTFCECYQRCAIHYDGAEEAMRWQAREVTMVVVTSGEMLQQLWSLIPQWYREHWLLHCRLAVVSERLAKLARELGWQDIKVADNADNDALLRALQ
B9: hemD V183P (protein)
chain: MSILVTRPSPAGEELVSRLRTLGQVAWHFPLIEFSPGQQLPQLADQLAALGESDLLFALSQHAVAFAQSQLHQQDRKWPRLPDYFAIGRTTALALHTVSGQKILYPQDREISEVLLQLPELQNIAGKRALILRGNGGRELIGDTLTARGAEVTFCECYQRCAIHYDGAEEAMRWQAREVTMVPVTSGEMLQQLWSLIPQWYREHWLLHCRLLVVSERLAKLARELGWQDIKVADNADNDALLRALQ
B10: hemL V206A (protein)
chain: MSKSENLYSAARELIPGGVNSPVRAFTGVGGTPLFIEKADGAYLYDVDGKAYIDYVGSWGPMVLGHNHPAIRNAVIEAAERGLSFGAPTEMEVKMAQLVTELVPTMDMVRMVNSGTEATMSAIRLARGFTGRDKIIKFEGCYHGHADCLLVKAGSGALTLGQPNSPGVPADFAKYTLTCTYNDLASVRAAFEQYPQEIACIIVEPAAGNMNCVPPLPEFLPGLRALCDEFGALLIIDEVMTGFRVALAGAQDYYGVVPDLTCLGKIIGGGMPVGAFGGRRDVMDALAPTGPVYQAGTLSGNPIAMAAGFACLNEVAQPGVHETLDELTTRLAEGLLEAAEEAGIPLVVNHVGGMFGIFFTDAESVTCYQDVMACDVERFKRFFHMMLDEGVYLAPSAFEAGFMSVAHSMEDINNTIDAARRVFAKL
B11: argG L45Q (protein)
chain: MTTILKHLPVGQRIGIAFSGGLDTSAALLWMRQKGAVPYAYTANQGQPDEEDYDAIPRRAMEYGAENARLIDCRKQLVAEGIAAIQCGAFHNTTGGLTYFNTTPLGRAVTGTMLVAAMKEDGVNIWGDGSTYKGNDIERFYRYGLLTNAELQIYKPWLDTDFIDELGGRHEMSEFMIACGFDYKMSVEKAYSTDSNMLGATHEAKDLEYLNSSVKIVNPIMGVKFWDESVKIPAEEVTVRFEQGHPVALNGKTFSDDVEMMLEANRIGGRHGLGMSDQIENRIIEAKSRGIYEAPGMALLHIAYERLLTGIHNEDTIEQYHAHGRQLGRLLYQGRWFDSQALMLRDSLQRWVASQITGEVTLELRRGNDYSILNTVSENLTYKPERLTMEKGDSVFSPDDRIGQLTMRNLDITDTREKLFGYAKTGLLSSSAASGVPQVENLENKGQ
B12: argG L249W (protein)
chain: MTTILKHLPVGQRIGIAFSGGLDTSAALLWMRQKGAVPYAYTANLGQPDEEDYDAIPRRAMEYGAENARLIDCRKQLVAEGIAAIQCGAFHNTTGGLTYFNTTPLGRAVTGTMLVAAMKEDGVNIWGDGSTYKGNDIERFYRYGLLTNAELQIYKPWLDTDFIDELGGRHEMSEFMIACGFDYKMSVEKAYSTDSNMLGATHEAKDLEYLNSSVKIVNPIMGVKFWDESVKIPAEEVTVRFEQGHPVAWNGKTFSDDVEMMLEANRIGGRHGLGMSDQIENRIIEAKSRGIYEAPGMALLHIAYERLLTGIHNEDTIEQYHAHGRQLGRLLYQGRWFDSQALMLRDSLQRWVASQITGEVTLELRRGNDYSILNTVSENLTYKPERLTMEKGDSVFSPDDRIGQLTMRNLDITDTREKLFGYAKTGLLSSSAASGVPQVENLENKGQ
B13: hemG L25A (protein)
chain: MKTLILFSTRDGQTREIASYLASEAKELGIQADVANVHRIEEPQWENYDRVVIGASIRYGHYHSAFQEFVKKHATRLNSMPSAFYSVNLVARKPEKRTPQTNSYARKFLMNSQWRPDRCAVIAGALRYPRYRWYDRFMIKLIMKMSGGETDTRKEVVYTDWEQVANFAREIAHLTDKPTLK
B14: hemG V52A (protein)
chain: MKTLILFSTRDGQTREIASYLASELKELGIQADVANVHRIEEPQWENYDRVAIGASIRYGHYHSAFQEFVKKHATRLNSMPSAFYSVNLVARKPEKRTPQTNSYARKFLMNSQWRPDRCAVIAGALRYPRYRWYDRFMIKLIMKMSGGETDTRKEVVYTDWEQVANFAREIAHLTDKPTLK
B15: hemG L25Q (protein)
chain: MKTLILFSTRDGQTREIASYLASEQKELGIQADVANVHRIEEPQWENYDRVVIGASIRYGHYHSAFQEFVKKHATRLNSMPSAFYSVNLVARKPEKRTPQTNSYARKFLMNSQWRPDRCAVIAGALRYPRYRWYDRFMIKLIMKMSGGETDTRKEVVYTDWEQVANFAREIAHLTDKPTLK
B16: hemG L25W (protein)
chain: MKTLILFSTRDGQTREIASYLASEWKELGIQADVANVHRIEEPQWENYDRVVIGASIRYGHYHSAFQEFVKKHATRLNSMPSAFYSVNLVARKPEKRTPQTNSYARKFLMNSQWRPDRCAVIAGALRYPRYRWYDRFMIKLIMKMSGGETDTRKEVVYTDWEQVANFAREIAHLTDKPTLK

These proteins were tested against Escherichia coli (laboratory strain) (assay: barcode share on antibiotic plates over drug-free plates; higher = less susceptible). Settings: antibiotic: carbenicillin; 2× MIC (3.1 µg/mL).
Method: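 A pool of E. coli strains, each edited to carry one amino-acid change in an essential protein, was grown for 48 h on minimal glucose agar with or without antibiotic; strain barcodes were sequenced; mean of two replicates.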
For B1, the “fold change of barcode share” value was 1.92 ± 0.93. With B2 the “fold change of barcode share” value was 0.965 ± 0.099. B3 was tested, and the “fold change of barcode share” value was 0.38 ± 0.27. With B4 the “fold change of barcode share” value was 8.27 ± 4.7. With B5 the “fold change of barcode share” value was > 42.7 [active]. For B6, the “fold change of barcode share” value was 1.01 ± 0.61. For B7, the “fold change of barcode share” value was 0.429 ± 0.11. B8 was tested, and the “fold change of barcode share” value was 0.397 ± 0.0077. With B9 the “fold change of barcode share” value was 1.08 ± 0.15. For B10, the “fold change of barcode share” value was 0.302 ± 0.12. With B11 the “fold change of barcode share” value was 0.1594 ± 0.00083. With B12 the “fold change of barcode share” value was 0.357 ± 0.065. With B13 the “fold change of barcode share” value was 2.91 ± 3.8. B14 was tested, and the “fold change of barcode share” value was 0.628 ± 0.085. For B15, the “fold change of barcode share” value was 0.319 ± 0.061. B16 was tested, and the “fold change of barcode share” value was 0.3285 ± 0.0027.

Same assay, conditions: antibiotic: gentamicin; 2× MIC (MIC 0.45 µg/mL)
B1 was tested, and the “fold change of barcode share” value was 128 [active]. For B2, the “fold change of barcode share” value was less than 0.00804. With B3 the “fold change of barcode share” value was 0.00541 ± 0.0009. In the case of B4, the “fold change of barcode share” value is reported as > 43.1 [active]. B6 was tested, and the “fold change of barcode share” value was 0.00459 ± 0.00099. B7 was tested, and the “fold change of barcode share” value was 0.00806 ± 0.0027. B8 was tested, and the “fold change of barcode share” value was 0.0519 ± 0.068. B9 was tested, and the “fold change of barcode share” value was 0.546 ± 0.56. In the case of B10, the “fold change of barcode share” value is reported as 0.00532 ± 0.0041. In the case of B11, the “fold change of barcode share” value is reported as 0.0127 ± 0.0019. In the case of B13, the “fold change of barcode share” value is reported as 0.0113 ± 0.01. In the case of B14, the “fold change of barcode share” value is reported as less than 0.00133. With B15 the “fold change of barcode share” value was 0.0041 ± 0.0013. B16 was tested, and the “fold change of barcode share” value was 0.0151 ± 0.0099.
